Source: paper PMC4336329 (PLoS ONE, 2015)
Among all 310,000 compounds or so, about 14,000 (4.5%) showed an effect of 50% or more. Effects have a minus sign here. This is one part of the list.
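Also: peak tail current of the secondary pulse compared with the same well before compound.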

These compounds were tested against human ether-à-go-go-related gene (hERG) potassium channel (human, UniProt Q12809) (assay: primary screen, population patch clamp on CHO cells stably expressing hERG).
Chain of human ether-à-go-go-related gene (hERG) potassium channel (Q12809 whole entry, looked up): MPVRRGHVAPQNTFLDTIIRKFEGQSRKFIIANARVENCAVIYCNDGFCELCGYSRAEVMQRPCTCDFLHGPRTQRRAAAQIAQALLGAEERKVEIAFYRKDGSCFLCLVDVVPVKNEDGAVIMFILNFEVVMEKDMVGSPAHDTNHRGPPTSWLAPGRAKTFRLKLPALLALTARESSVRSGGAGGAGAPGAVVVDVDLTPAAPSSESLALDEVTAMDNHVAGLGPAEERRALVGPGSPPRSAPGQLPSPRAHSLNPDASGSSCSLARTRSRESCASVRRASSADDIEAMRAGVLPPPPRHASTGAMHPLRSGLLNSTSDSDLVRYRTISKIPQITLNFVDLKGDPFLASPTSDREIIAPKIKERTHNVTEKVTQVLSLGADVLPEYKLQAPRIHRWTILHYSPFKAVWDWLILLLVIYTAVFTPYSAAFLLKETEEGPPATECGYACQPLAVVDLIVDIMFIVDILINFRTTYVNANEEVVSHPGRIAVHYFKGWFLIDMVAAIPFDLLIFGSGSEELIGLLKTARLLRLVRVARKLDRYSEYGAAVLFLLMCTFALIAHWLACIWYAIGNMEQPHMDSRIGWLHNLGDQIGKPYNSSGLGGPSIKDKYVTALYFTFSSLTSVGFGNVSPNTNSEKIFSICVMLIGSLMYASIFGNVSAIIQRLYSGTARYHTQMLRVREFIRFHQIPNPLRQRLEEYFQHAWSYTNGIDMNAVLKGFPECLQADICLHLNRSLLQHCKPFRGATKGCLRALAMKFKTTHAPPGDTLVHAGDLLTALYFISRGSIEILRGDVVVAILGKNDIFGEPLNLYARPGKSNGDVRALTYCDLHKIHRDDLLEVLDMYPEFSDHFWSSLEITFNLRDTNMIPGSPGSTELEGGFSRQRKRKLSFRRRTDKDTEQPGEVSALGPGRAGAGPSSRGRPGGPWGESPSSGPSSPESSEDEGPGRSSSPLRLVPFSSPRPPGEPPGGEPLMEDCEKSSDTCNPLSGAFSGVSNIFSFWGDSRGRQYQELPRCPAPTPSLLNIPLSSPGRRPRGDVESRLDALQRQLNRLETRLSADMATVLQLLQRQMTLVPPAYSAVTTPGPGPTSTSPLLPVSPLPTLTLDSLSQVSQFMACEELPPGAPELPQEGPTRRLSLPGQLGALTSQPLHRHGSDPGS
For `O=C(O)c1cccnc1SCCc1ccccc1`, the “hERG current change (%, negative = inhibition) at 10uM” value was -4.45%. In the case of `CCN(C(=O)c1ccc2c(OC)n(CC)nc2c1)c1ccc(OC)cc1`, the “hERG current change (%, negative = inhibition) at 10uM” value is reported as -1.34%. For `C/C(=N\NC(=O)C(C)Sc1ccccc1)C(C)(C)C` (stereo not shown), the “hERG current change (%, negative = inhibition) at 10uM” value was -0.719%. For `CCCCn1c(N)c(N(CCOC)C(=O)c2ccc(C)o2)c(=O)[nH]c1=O`, the “hERG current change (%, negative = inhibition) at 10uM” value was -0.775%. In the case of `Cc1ccc(C)c(NC(=S)NCc2cccn2C)c1`, the “hERG current change (%, negative = inhibition) at 10uM” value is reported as -8.27%. For `CCc1nc2cc3sc(CC)nc3cc2s1`, the “hERG current change (%, negative = inhibition) at 10uM” value was 8.23%. `COc1ccccc1NC(=O)C(=O)N(c1cccnc1)C(C(=O)NC(C)(C)C)c1ccccc1` (stereo not shown) was tested, and the “hERG current change (%, negative = inhibition) at 10uM” value was 18.7%. With `Cc1ccc(C)c(NC(=S)NCCN(C2CCCCC2)C2CCCC2)c1` the “hERG current change (%, negative = inhibition) at 10uM” value was -68.5%. `O=C(CNC(=O)C1CCCCC1)NNC(=O)c1ccc(Cl)cc1Cl` was tested, and the “hERG current change (%, negative = inhibition) at 10uM” value was 12.7%. With `Cc1cc(Oc2ccc3ccccc3c2)nc(SCC(=O)c2ccccc2)n1` the “hERG current change (%, negative = inhibition) at 10uM” value was 13.1%. For `COc1cc(C(=O)NC(CCSC)C(=O)OCc2cc([N+](=O)[O-])cc3c2OCOC3)cc(OC)c1OC` (stereo not shown), the “hERG current change (%, negative = inhibition) at 10uM” value was 3.17%. In the case of `CS(=O)(=O)c1ccc2nc(NC(=O)c3ccc(Cl)cc3)sc2c1`, the “hERG current change (%, negative = inhibition) at 10uM” value is reported as 6.42%. In the case of `Cc1cc(N=Cc2c(O)ccc3cc(Br)ccc23)no1`, the “hERG current change (%, negative = inhibition) at 10uM” value is reported as -3.44%. `CNC(=S)N(C)CCc1cc2c(c(OC)c1C=C1C(=O)NC(=O)NC1=O)OCO2` was tested, and the “hERG current change (%, negative = inhibition) at 10uM” value was 21.3%. `Cc1cc(C(=O)N2CCN(c3ccc([N+](=O)[O-])cc3)CC2)no1` was tested, and the “hERG current change (%, negative = inhibition) at 10uM” value was -70.6%. With `CCOP(=O)(OCC)C(C)(C)NC(=O)Nc1ccc(Cl)c(Cl)c1` the “hERG current change (%, negative = inhibition) at 10uM” value was 4.04%. With `O=C(CS(=O)(=O)c1ccc(Cl)c(Cl)c1)Nc1ccccc1Cl` the “hERG current change (%, negative = inhibition) at 10uM” value was 32.9%. `Cc1cc(C)n2nc(C(=O)OCCOc3cccc(Br)c3)nc2n1` was tested, and the “hERG current change (%, negative = inhibition) at 10uM” value was -21.6%. In the case of `COc1ccccc1N1CCN(C(=O)c2oc3ccc(Br)cc3c2C)CC1`, the “hERG current change (%, negative = inhibition) at 10uM” value is reported as 19.1%. With `CCOC(=O)c1c(NC(C)=O)sc2c(O)c(CN3CCN(CC)CC3)ccc12` the “hERG current change (%, negative = inhibition) at 10uM” value was 5.26%. For `C/C(=N\NC(=O)c1n[nH]c2c1CCC2)c1ccco1`, the “hERG current change (%, negative = inhibition) at 10uM” value was 14.6%. For `CN(CCNC(=O)C1CCN(S(=O)(=O)N2CCOCC2)CC1)CCc1ccccc1`, the “hERG current change (%, negative = inhibition) at 10uM” value was -15.9%. With `CN(CP(=O)(O)CCc1ccccc1)S(C)(=O)=O` the “hERG current change (%, negative = inhibition) at 10uM” value was 6.59%. `Nc1ccc(S(=O)(=O)O)cn1` was tested, and the “hERG current change (%, negative = inhibition) at 10uM” value was 18%. `Cc1nnc(NC(=O)CCn2c(=O)oc3ccc(Cl)cc32)s1` was tested, and the “hERG current change (%, negative = inhibition) at 10uM” value was 21.4%. With `O=C(NCc1ccccc1)N1CCOCC1` the “hERG current change (%, negative = inhibition) at 10uM” value was -25.7%. `CCOC(=O)C1C(=O)CC(C)(O)C(C(=O)OCC)C1c1cccc(OC(F)(F)C(F)F)c1` (stereo not shown) was tested, and the “hERG current change (%, negative = inhibition) at 10uM” value was 2.47%. For `O=C(c1cccc(C(F)(F)F)c1)N1CCC2(CC1)NCCc1[nH]cnc12`, the “hERG current change (%, negative = inhibition) at 10uM” value was 7.75%. In the case of `COc1ccccc1C(=O)COC(=O)c1cnc(C)cn1`, the “hERG current change (%, negative = inhibition) at 10uM” value is reported as 1.1%. For `CCc1cc2c3c(c1)C(C)CC(C)(C)N3C(=O)C2=O` (stereo not shown), the “hERG current change (%, negative = inhibition) at 10uM” value was -15.6%. In the case of `c1csc(Cn2nnnc2CN2CCN(c3nc4ccccc4s3)CC2)c1`, the “hERG current change (%, negative = inhibition) at 10uM” value is reported as -46%. With `O=C(CN1CCN(S(=O)(=O)c2ccccc2)CC1)N1CCc2ccccc21` the “hERG current change (%, negative = inhibition) at 10uM” value was -10.2%. In the case of `CCC(C)NC(=S)Nc1ccc2nc(N3CCN(CC)CC3)cc(C)c2c1` (stereo not shown), the “hERG current change (%, negative = inhibition) at 10uM” value is reported as -28.8%. For `CCCCCC(=O)NC(=S)Nc1ccc(N2CCOCC2)cc1`, the “hERG current change (%, negative = inhibition) at 10uM” value was 4.97%. For `N#Cc1c(NC(=O)c2cnccn2)sc2c1CCCC2`, the “hERG current change (%, negative = inhibition) at 10uM” value was 1.94%. For `O=C(Nc1ccc(Cc2ccncc2)cc1)C1CCC(N2C(=O)C3C4C=CC(C5CC45)C3C2=O)CC1` (stereo not shown), the “hERG current change (%, negative = inhibition) at 10uM” value was 9.06%. In the case of `COc1ccc(C(=O)NCC(=O)OCC(=O)Nc2cccc(S(=O)(=O)N3CCCC3)c2)cc1`, the “hERG current change (%, negative = inhibition) at 10uM” value is reported as -15.8%. In the case of `CC(C)(C)c1ccc(/C=N/NC(=S)Nc2cccnc2)cc1`, the “hERG current change (%, negative = inhibition) at 10uM” value is reported as 27.8%. For `CC(=O)NC(CC(=O)Nc1cc(Cl)ccc1-n1cncn1)c1ccccc1` (stereo not shown), the “hERG current change (%, negative = inhibition) at 10uM” value was 7.8%. For `Cc1cc(NC(=O)CSc2nnc(CNC(=O)c3ccc(C(C)(C)C)cc3)o2)no1`, the “hERG current change (%, negative = inhibition) at 10uM” value was 13.6%. With `N#CC(C#N)=C1CCc2ccccc2N1` the “hERG current change (%, negative = inhibition) at 10uM” value was 10.9%. `O=S(=O)(Nc1nc2ccccc2nc1Cl)c1ccc2ccccc2c1` was tested, and the “hERG current change (%, negative = inhibition) at 10uM” value was -12.2%. In the case of `FC(F)(F)c1nc2ccccc2nc1N/N=C\c1ccccc1`, the “hERG current change (%, negative = inhibition) at 10uM” value is reported as 12.3%. In the case of `Cc1oc2cc(OCC(=O)O)ccc2c(=O)c1Oc1ccccc1`, the “hERG current change (%, negative = inhibition) at 10uM” value is reported as -17%. `CN1C(=O)CC(Sc2ncccc2C(=O)O)C1=O` (stereo not shown) was tested, and the “hERG current change (%, negative = inhibition) at 10uM” value was 2.75%. In the case of `CCOC(=O)c1ccsc1NC(=O)CCS(=O)(=O)c1ccccc1`, the “hERG current change (%, negative = inhibition) at 10uM” value is reported as -11.9%. For `CCCC[C@H]1COCCS(=O)(=O)N1Cc1ccccc1F`, the “hERG current change (%, negative = inhibition) at 10uM” value was -2.13%. With `Cc1ccc2cc(CN(CC(C)C)S(=O)(=O)c3ccccc3)c(=O)[nH]c2c1` the “hERG current change (%, negative = inhibition) at 10uM” value was 17.2%. `O=S1(=O)C=C(Oc2ccc(F)cc2)c2ccccc21` was tested, and the “hERG current change (%, negative = inhibition) at 10uM” value was 6.23%. For `C=C1CCN([C@@H](CC(C)C)C(=O)N2CCOCC2)S(=O)(=O)c2ccccc21`, the “hERG current change (%, negative = inhibition) at 10uM” value was 13.3%. For `CC1=NNC(=O)C(CC(=O)Nc2ccc(Cl)c(Cl)c2)C1` (stereo not shown), the “hERG current change (%, negative = inhibition) at 10uM” value was -40.6%. In the case of `OC1(c2cccc(F)c2)CCN(Cc2ccncc2)CC1`, the “hERG current change (%, negative = inhibition) at 10uM” value is reported as -1.96%. `O=C(CCCCCNC(=O)N1CCn2c1nc1ccccc12)N[C@H](Cc1ccccc1)C(=O)O` was tested, and the “hERG current change (%, negative = inhibition) at 10uM” value was -1.43%. For `COc1cc(OC)cc(C(=O)NCC(C)NC(=O)c2cc(OC)cc(OC)c2)c1` (stereo not shown), the “hERG current change (%, negative = inhibition) at 10uM” value was 2.59%. In the case of `O=C(NCC(=O)N(c1cccnc1)C(C(=O)NC1CCCCC1)c1cccnc1)c1ccco1` (stereo not shown), the “hERG current change (%, negative = inhibition) at 10uM” value is reported as 6.68%. `O=c1[nH]c(SCCOc2ccccc2)nc2ccccc12` was tested, and the “hERG current change (%, negative = inhibition) at 10uM” value was -2.43%. For `Cn1nc(C(F)(F)F)c(-c2ccc(Br)cc2)c1NC(=O)Nc1ccc(F)cc1F`, the “hERG current change (%, negative = inhibition) at 10uM” value was 13%. For `O=C(Nc1ccc(Cl)cc1)NC1CCCCC1Cc1ccco1` (stereo not shown), the “hERG current change (%, negative = inhibition) at 10uM” value was -18.5%.
